The other results are listed elsewhere or left out.
Each molecule was assayed on T1, C. trachomatis L2/434/Bu expressing GFP (CTL2-GFP). Settings: total inclusion area; 28.5 h, 10 µM; inhibitor.
T1 construct: L2/434/Bu GFP intracellular growth in HeLa cells
Design: species or system HeLa; C. trachomatis total inclusion area by high-content imaging, normalised to DMSO
Procedure, shortened: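 Bulk GFP and resorufin signals were read first. Wells were then fixed, stained with Hoechst and imaged to detect GFP inclusions and host nuclei. MICs followed the previously described calculation.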

Compound	% of control remaining
O=C(Cn1c(=O)n(Cc2ccco2)c2ncccc21)N1CCCC1 [CBK284708]	114.073
COc1cccc2c1cc(C(=O)NCCCC1CCOC1)n2C (stereo not drawn) [CBK283284]	101.783
O=C(Nc1c(F)cc(F)cc1OC1CCNCC1)c1coc2c1C(=O)CCC2 [CBK050331T]	71.4259
CCCS(=O)(=O)n1c(=O)n(CC(=O)c2ccccc2OC)c2ccccc21 [CBK106498]	90.43
O=C(c1ccc(N2CCN(C3CC(=O)N(Cc4cccs4)C3=O)CC2)cc1)c1cccnc1 (stereo not drawn) [CBK269040]	88.7494
O=S(=O)(Nc1ccc(C(F)(F)F)cc1Cl)c1cc(Br)c(Cl)s1 [CBK057196]	32.1841
O=C(Cc1ccc(Cl)cc1)Nc1ccc(Oc2ccc3c(c2)C(=O)NC3=O)cc1 [CBK265869]	120.562
Cc1cc(-c2nnc(SCCC(=O)Nc3ccccc3)o2)no1 [CBK268737]	113.492
CCOc1ccc(/C=C2\SC(=O)NC2=S)cc1 [CBK027996]	83.9209
CC(C)C(=O)N1CC2(CCN(Cc3cc(=O)[nH]c(=O)[nH]3)CC2)c2ccccc21 [CBK144602T]	118.265
O=C(Nc1ccc(-c2nc3ccccc3o2)c(O)c1)c1ccc(-c2ccc([N+](=O)[O-])cc2)o1 [CBK263416]	73.3936
COc1c(C)cccc1C(=O)N1CCCCC1c1ncc(C(=O)Nc2ccccc2)c(C)n1 (stereo not drawn) [CBK285841]	128.234
COc1ccc(S(=O)(=O)Nc2ccc(C(=O)O)cc2)cc1OC [CBK034048]	78.4137
O=C(OCc1ccccc1)N1CCC(C(=O)N(CCc2ccccc2)Cc2ccccc2)CC1 [CBK171978]	100.016
CC(=O)CSc1nc2c(c(=O)n(C)c(=O)n2C)n1CCCc1ccccc1 [CBK269581]	89.134
CCOC(=O)Cn1c(CN2CCCCC2C)nc2c1c(=O)n(C)c(=O)n2C (stereo not drawn) [CBK269382]	103.385
Cc1cccnc1C(c1ccccc1)N(C)C(=O)C1CCN(C(=O)OCc2ccccc2)CC1 (stereo not drawn) [CBK060522]	103.464
Cc1cccc(Nc2nc3nonc3[nH]/c2=N\N=C/c2cn(Cc3ccc(Cl)cc3Cl)c3ccccc23)c1C [CBK262378]	94.1905
c1cncc(COc2nc3ccccc3nc2N2CCCC2)c1 [CBK115762]	87.9231
Cn1cc(-c2nc(C(=O)NC3CCCN(c4ncccn4)C3)cs2)cn1 (stereo not drawn) [CBK305629]	68.0613
COc1cc2nc3c4ccccc4n(CC(=O)O)c3nc2cc1OC [CBK263626]	96.4008
CN(C)CCCNC=C1C(=O)CC(C)(C)CC1=O [CBK262043]	97.4332
O=C(O)CCC(=O)Nc1ccccc1NC(=O)c1ccc(C(F)(F)F)cc1 [CBK265770]	55.164
COc1ccccc1C1CCN(C(=O)c2ccc(C(C)(C)C)cc2)CC1 [CBK086469]	106.997
C=CCC1(CC=C)CCN1C(=O)c1sc2ncn(C)c(=O)c2c1C [CBK282637]	128.21
O=C(N[C@H]1CO[C@H]2[C@@H]1OC[C@@H]2n1cc(-c2ccccc2)nn1)N1CCOCC1 [CBK289503]	114.603

Compound	% of control remaining
CS(=O)(=O)N[C@H]1C[C@H]2C(=O)Nc3ccc(-c4cccs4)cc3C(=O)N2C1 [CBK289359]	100.989
CC(=O)N/C(=C\c1ccccc1)C(=O)NC(C)C(=O)O (stereo not drawn) [CBK261491]	101.58
N=C1S/C(=C/c2ccc(-c3ccccc3C(=O)O)o2)C(=O)N1c1nccs1 [CBK077624]	99.0808
Cc1ccc(CCC2CCN(C(=O)c3ccc(O)nc3)CC2)cc1 [CBK296724]	105.146
c1ccc(-n2nnnc2SCc2cccc(CSc3nnnn3-c3ccccc3)n2)cc1 [CBK263258]	109.702
COCC(=O)N1CCc2sccc2C1c1ccc(NCc2ccc(OC)cc2)cc1 (stereo not drawn) [CBK286458]	92.0853
CNC(=O)CC1CCN(c2cc(C#N)ccc2C(F)(F)F)CC1 [CBK306450]	47.1726
CC(C)(C)c1cnc(C(=O)NC2CCCN(c3ncccn3)C2)o1 (stereo not drawn) [CBK305777]	50.7749
CS(=O)(=O)N(CC(=O)Nc1ccc(S(=O)(=O)N2CCCCC2)cc1)c1ccc2c(c1)OCO2 [CBK268189]	98.2221
Cc1ccc(Oc2cc(-n3nc(C)c(C(N)=O)c3N)ncn2)cc1 [CBK099753]	82.9649
OCc1ccccc1-c1cncc(NCC2CCOCC2)n1 [CBK037309]	105.286
CC(C(=O)N1CCC(c2cc3cccnc3[nH]2)CC1)N1CCCC1=O (stereo not drawn) [CBK282705]	90.095
CCOC(=O)c1c(C)oc2ccc(OCC(=O)c3ccc(Br)cc3)cc12 [CBK263841]	98.5491
CNC(=O)N1CC(=O)N(Cc2cccc(Cl)c2)C1=O [CBK001918]	110.5
Cn1c(Sc2ccc(C(=O)O)cc2[N+](=O)[O-])nnc1-c1ccccc1 [CBK265047]	109.371
Cc1cc(C)c2nc(-c3ccccn3)cc(C(=O)NCc3cccs3)c2c1 [CBK267772]	114.761
O=S(=O)(NCC(Nc1cccc2ccccc12)c1ccccc1)c1ccc(Cl)cc1 (stereo not drawn) [CBK264087]	67.063
O=c1[nH]c(=O)c2cc(S(=O)(=O)Nc3ccc(Oc4cccnc4)cc3)ccc2[nH]1 [CBK286386]	95.7565
O=C(CN(Cc1ccccc1)S(=O)(=O)c1cc(Cl)ccc1Cl)Nc1cccc(F)c1 [CBK264664]	106.493
Cc1ccccc1OCC(=O)Nc1c(C)n[nH]c1C [CBK266046C]	96.7999
CN(CC(=O)NCc1ccccn1)S(=O)(=O)c1ccc(Br)cc1 [CBK265127]	103.897
NCc1ccc(-c2nc3ccccc3[nH]2)nc1 [CBK024396C]	80.0626
CCOC(=O)C1(Cc2ccc(F)cc2F)CCCN(S(=O)(=O)CC)C1 (stereo not drawn) [CBK307655]	44.3168
N#Cc1ccc(CSc2ncccc2C(=O)O)cc1 [CBK287187]	109.689
Cc1cccc(C(=O)Nc2ccccc2C(=O)Nc2cccc(C(=O)O)c2C)c1 [CBK265911]	76.8104
O=C(NC(c1ccccc1)c1ccco1)C1CCN(C(=O)c2cccs2)CC1 (stereo not drawn) [CBK059854]	92.861

Compound	% of control remaining
O=C(c1cnc2ccccc2n1)N1CCc2ccccc21 [CBK200267]	101.164
COc1cc(-c2cncc(NCCCO)n2)cc(OC)c1OC [CBK065271]	98.3306
Cc1c(C(N)=O)sc(NC(=O)c2cccnc2)c1C#N [CBK268163]	88.7562
CCOc1cc(OCC)cc(C(=O)N2CCCC3(CC(=O)c4ccc(C)cc4O3)C2)c1 (stereo not drawn) [CBK168067]	118.537
CN1C(=O)c2cccc3c(S(=O)(=O)N4CCN(S(=O)(=O)c5ccc6c7c(cccc57)C(=O)N6C)CC4)ccc1c23 [CBK269140]	100.994
O=C(Nc1cc(N2CCNCC2)c2occc2c1)c1cccc(C(F)(F)F)c1 [CBK061762C]	69.0804
COc1ccc(CC(=O)O)cc1S(=O)(=O)Nc1ccc(SC)cc1 [CBK298315]	72.8401
OC1CCN(c2ccc(-c3ccccc3)nn2)CC1 [CBK021753]	56.361
Cc1nc(C(Cc2ccsc2)NC(=O)C(C)(C)N)sc1C (stereo not drawn) [CBK284775]	115.028
FC(F)(F)c1nc2ccccc2nc1OC1CCOC1 (stereo not drawn) [CBK115806]	73.5214
CC(=O)N1CCCC[C@H]2[C@H]1C[C@@H](c1ccccc1)N2C(=O)CN1CCCCCC1 [CBK286120]	119.416
Cn1nccc1CNCc1c(Br)cc(F)c(F)c1N1CCCCC1 [CBK306284]	64.6376
Cc1ccc(S(=O)(=O)N2CCN(CC(O)COc3ccc4ccccc4c3Cl)CC2)c(C)c1 (stereo not drawn) [CBK266563]	101.64
Nc1ncc(-c2ccncc2)nc1NCC1CCOCC1 [CBK063816]	120.8
CN(Cc1cn(-c2ccccc2)nc1-c1ccccc1)C(=O)CCc1n[nH]c(=S)[nH]c1=O [CBK295630]	116.815
Cc1nn(-c2nc3ccccc3s2)c(O)c1C [CBK270254]	108.243
Cc1nc(C)c(C(=O)NC2Cc3ccccc3C2)s1 [CBK200357]	88.9422
COCCNc1nccnc1-c1ccccc1CO [CBK038010]	84.4581
Fc1ccc(-n2cc(-c3cccnc3)nn2)cc1F [CBK113055]	104.59
Cn1nc(-c2ccc(Cl)cc2)cc1NC(=O)Cn1nnc(-c2ccc(F)cc2)n1 [CBK295203]	98.5589
COc1ccc(CNC(=O)NC(=O)C2CCN(CCCc3ccc4c(c3)OCO4)CC2)c(OC)c1 [CBK034875]	68.5513
Cc1c(CNC(=O)c2cc(-c3ccncc3)nc3ccc(Cl)cc23)cnn1C [CBK288627]	113.576
CNS(=O)(=O)c1cccc(C(C)NC(=O)N2CCC2)c1 (stereo not drawn) [CBK306257]	58.9137
N#CCCn1cc(C(=O)N2CCOCC2)c(-c2ccccc2)n1 [CBK306207]	62.3731
Oc1ccc(Br)cc1/C=N/c1ccc(-c2cc(-c3ccc(/N=C/c4cc(Br)ccc4O)cc3)ncn2)cc1 [CBK261630]	95.489
C(=C\c1ccccc1)/CSc1nnc(CSc2nc3ccccc3s2)n1-c1ccccc1 [CBK264467]	108.61

Source: publication PMC12040169 (PLOS Biology, 2025)
